# Measurements published in PubChem BioAssay AID1347073 (National Center for Advancing Translational Sciences (NCATS), 2019).
# In all, about 45,000 compounds went through this assay and about 200 (0.44%) were called active. Inconclusive results (about 7%) are left out. Calls follow the shape of the dose curve; as a rule, active = well fitted activation curve with a large enough effect; inconclusive = small, poorly fitted or top-dose-only effect; inactive = no such curve, though single readings can be large or run the other way. Some of the results follow.
# Test: qHTS of TDP-43 Inhibitors: NCGC Sytravon Library Screen; also: nearly all actives have a fitted effect of over 55% in size; as to growth rescue (activation): 0% is about no effect
# Conditions: yeast TDP-43 toxicity rescue, BacTiter-Glo growth, 24 h; series mostly up to 46.1 µM; growth rescue (activation): at the top concentration
# In short: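 TDP-43-expressing yeast, pregrown in raffinose, seeded at OD600 0.02 in galactose medium with compound for 24 hr at 30 deg C. Growth read by BacTiter-Glo luminescence, so rescue of toxicity appears as activation.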
# Potency is read from the fitted curve at half-maximal effect.
Structure (SMILES),growth rescue (activation),Potency
O=C1NC(c2ccc(-c3ccccc3[N+](=O)[O-])o2)C(C(=O)c2ccc(F)cc2)C(O)(C(F)(F)F)N1 (stereo not given),inactive: 18.5%,
O=C(CCl)Nc1ccc(S(=O)(=O)Nc2nccs2)cc1,inactive: 6.05%,
CCOc1cc(S(=O)(=O)N2CCCC2)c(C)cc1C,inactive: -7.12%,
O=C(N=C1c2ccccc2CN1c1ccccc1)c1cccc([N+](=O)[O-])c1,inactive: 12.5%,
COC(=O)/C=C1/N/C(=N\c2nc(C)cc(C)n2)N(c2cccc(C)c2)C1=O,inactive: 0.319%,
O=C(CSc1nnc2c(Cl)cc(Cl)cn12)NC1CCS(=O)(=O)C1 (stereo not given),inactive: 11.5%,
CCc1nc2ccc(C(=O)NC3CCN(Cc4ccccc4)CC3)cn2c1N(C)CCN1CCOCC1,inactive: 1.58%,
Cc1cc(C)c(NC(=O)CSc2nnc(-c3ccccn3)n2N)c(Cl)c1,inactive: 1.39%,
Cc1ccc(S(=O)(=O)N(C)CC(=O)N2CCN(Cc3ccc4c(c3)OCO4)CC2)cc1,inactive: -11.7%,
O=S(=O)(NCC1CCCO1)c1ccc(S(=O)(=O)N(Cc2ccc(F)cc2)Cc2ccco2)cc1 (stereo not given),inactive: 13.9%,
Cc1ccc(NC(=O)CN2C(=O)S/C(=C\c3cc(C)n(-c4ccc(C(=O)O)cc4)c3C)C2=O)cc1,inactive: 8.44%,
CCCCCOCC1CC(C/C(C)=N/Nc2nc(-c3ccccc3)cs2)C(=O)O1 (stereo not given),inactive: -5.89%,
Cc1cc(C)n(-c2ccc(C(=O)Nc3cccc(S(=O)(=O)N4CCCC4)c3)cc2)n1,inactive: -7.25%,
Cc1ccc(S(=O)(=O)N(CC(=O)NCc2cccnc2)c2ccc(F)cc2)cc1,inactive: -11.1%,
COc1ccc2sc(C)[n+](C)c2c1,inactive: 3.39%,
Cc1nnc(NC(=O)C2CCCN2S(=O)(=O)c2ccc(Cl)cc2)s1 (stereo not given),inactive: 11.1%,
COc1cc(/C=C2\SC(=S)N(NS(=O)(=O)c3ccc(C)cc3)C2=O)cc(OC)c1OC,inactive: -13.9%,
COc1cccc(N(C(=O)c2snc(C(N)=O)c2N)C(C(=O)NCC2CCCO2)c2cccs2)c1 (stereo not given),inactive: 9.73%,
O=C(O)c1ccccc1OCCOc1ccccc1,,active: 22.4 µM
O=C(Nc1cc(C(F)(F)F)ccc1Cl)C(Sc1nnc(-c2cccs2)o1)c1ccccc1 (stereo not given),inactive: 15.3%,
CC(C)CCC(O)(CCC(C)C)C(=O)NNc1ccccc1,inactive: 14.4%,
CCN1CCN(CC(O)COC(c2ccccc2)c2ccccc2)CC1 (stereo not given),inactive: -1.99%,
Cc1cc(S(=O)(=O)NCc2ccncc2)c(C)cc1Br,inactive: -5.11%,
O=C(/C=C/Nc1ccc(F)cc1F)c1cccs1,inactive: 13.7%,
COc1cc(/C=N/Nc2ccccn2)ccc1O,inactive: -7.15%,
CCc1cc(-c2n[nH]c(CCC(=O)O)c2-c2nc3ccccc3n2C)c(O)cc1O,inactive: -1.55%,
CC(=O)c1ccc(N2C(=O)CC(N3CCN(S(=O)(=O)c4cc(C)ccc4C)CC3)C2=O)cc1 (stereo not given),inactive: 20.8%,

Structure (SMILES),growth rescue (activation),Potency
CCN(CC)CCCNC(=O)c1ccc(OCC(=O)Nc2ccccc2C(F)(F)F)c(OC)c1,inactive: 11.6%,
Cc1ccc(C)n1-c1nnc(N2CCC(C(=O)NCc3ccccc3Cl)CC2)s1,inactive: 2.74%,
CC(NC(=S)Nc1c(Br)cccc1OC(F)F)C(C)(C)C (stereo not given),inactive: 22.4%,
COc1ccccc1C(=O)NNC(=O)C1CCCO1 (stereo not given),inactive: -44.5%,
CCOC(=O)C1CCN(Cc2cc(C(C)(C)C)c(O)c(C(C)(C)C)c2)CC1,inactive: -1.13%,
N/C(=N\OC(=O)C(c1ccccc1)c1ccccc1)c1ccncc1,inactive: 17.4%,
O=C(c1cc(C2CCCCN2C(=O)CCCc2ccccc2)on1)N1CCOCC1 (stereo not given),inactive: -5.25%,
Cc1ccc(S(=O)(=O)N2CCOCC2)cc1NC(=O)COC(=O)Cc1ccccc1,inactive: 6.45%,
O=c1[nH]c2ccccc2nc1C(F)(F)F,inactive: 13.1%,
COc1ccc(NC(=O)c2cc(-c3cc(OC)c(OC)c(OC)c3)nc3ccccc23)cc1OC,inactive: 4.53%,
CCOc1ccc(/C=C2\SC(=S)N(C)C2=O)cc1OC,inactive: -5.7%,
COc1ccc(Cl)cc1NC(=S)NNC(=O)C1(C)CC1(Cl)Cl (stereo not given),inactive: 5.82%,
CC(C)(C)NC(=O)c1ccccc1NC(=O)c1ccc2c(c1)OCO2,inactive: -6.28%,
O=C(CSc1nc2ccccc2[nH]1)c1ccccc1F,inactive: 3.67%,
CC(=O)Nc1ccc(C(=O)Nc2ccc(S(=O)(=O)N3CCCCC3)cc2)cc1,inactive: 4.63%,
Cc1cc(Oc2ccc(=O)n(C)n2)nc(Oc2ccc(=O)[nH]n2)n1,inactive: -3.8%,
CCOc1ccc(NC(=O)CCNC(=O)c2ccc(Br)cc2)cc1,inactive: -8.77%,
CC(NC(=O)Cn1c(NCCO)nc2ccccc21)C1CC2CCC1C2 (stereo not given),inactive: -15.3%,
COc1cc(NC2c3ccccc3C(=O)N2Cc2ccccc2)cc(OC)c1OC (stereo not given),inactive: 29.6%,
CN(C)C(=O)C1C2NC(=S)N(c3cccc(Cl)c3)C1(C)Oc1ccc(Cl)cc12 (stereo not given),inactive: 17.9%,
CCOc1ccc2nc(/N=C/c3nc(-c4ccc(Br)cc4)oc3O)sc2c1,inactive: -14.2%,
CN(CCO)c1cc(N2CCCCC2)c2nonc2c1[N+](=O)[O-],inactive: -7.18%,
O=C1c2cccnc2C(=O)N1c1cccc([N+](=O)[O-])c1,inactive: -20%,
CCn1cc(C(=O)Nc2cccc(NC(C)=O)c2)c2cc(OC)c(OC)cc2c1=O,inactive: 17%,
Cc1cc(C)nc(N2CCCC(C(=O)Nc3cccc(Cl)c3)C2)n1 (stereo not given),inactive: 12.8%,
CCNc1c([N+](=O)[O-])c(=O)n(CC)c2ccccc12,inactive: 5.06%,
CC(=O)NCCCc1nc2ccccc2n1Cc1ccccc1F,inactive: -12.7%,

Structure (SMILES),growth rescue (activation),Potency
O=C(Nc1ccc(F)c(Cl)c1)c1cc(C2CCCN(S(=O)(=O)c3cccc4cccnc34)C2)on1 (stereo not given),inactive: 17.7%,
COc1cccc(NC(=S)NCc2cccnc2)c1,inactive: 4.17%,
Cc1nnc(NC(=O)CSc2nnc(CCNC(=O)c3ccccc3F)n2C)s1,inactive: -10.2%,
O=C(/C=C/c1cccc(Cl)c1)NCCc1ccccc1,inactive: 16.4%,
COCc1nnc(NC(C)=O)s1,inactive: 7.05%,
CCC(C)(C)N(C(=O)CCC(=O)Nc1cc(C)on1)C(C(=O)NC(C)(C)C)c1ccc(OC)cc1 (stereo not given),inactive: -1.72%,
CCOC(=O)c1cnc(-n2nc(C)cc2C)nc1NC1CCCCC1,inactive: -44.6%,
COc1ccc(S(=O)(=O)N2CC(O)C[C@H]2C(=O)OCC(=O)N2CCCCCC2)cc1 (stereo not given in full),inactive: -5.73%,
COC(=O)c1nn(-c2ccccc2)c(Sc2ccc(OC)cc2)c1/C=N/O,inactive: 1.55%,
Cc1ccc(F)c(S(=O)(=O)NC(=O)C2(C)CCN2C(=O)CCc2ccccc2)c1 (stereo not given),inactive: -24.8%,
CC(=O)N1CCN(C(=O)c2ccc(Cl)c(S(=O)(=O)N3CC(C)OC(C)C3)c2)CC1 (stereo not given),inactive: 3.51%,
CCC(=O)c1ccc(Oc2nc3c(c(=O)n(C)c(=O)n3C)n2CC)cc1,inactive: 2.48%,
CCOc1ccc(NC(=O)Nc2ccc(Br)cn2)cc1,inactive: 1.27%,
CCOc1ccc(S(=O)(=O)NCC2CCCO2)cc1NC(=O)c1ccccc1F (stereo not given),inactive: 6.4%,
COc1ccc(/C=C/C(=O)NC(=S)Nc2ccc(Br)cn2)cc1,inactive: 4.02%,
CSc1ncccc1C(=O)Nc1nc2ccc(S(C)(=O)=O)cc2s1,inactive: -1.7%,
COCC1CCCN(Cc2nc(C(c3ccccc3)c3ccccc3)no2)C1 (stereo not given),inactive: -1.33%,
COc1ccc(C(=O)c2sc3nc(-c4ccc(OC)cc4)ccc3c2N)cc1,inactive: 9.03%,
CC(C)/C=C/C(=O)N1CCC(N2CCC(C(=O)N3CCOCC3)CC2)CC1,inactive: 6.28%,
Cc1ccc(S(=O)(=O)NC(=O)NN2CC3CCCC3C2)cc1 (stereo not given),inactive: 6.95%,
O=C(Nc1ccccc1)C1=C(c2ccccc2)S(=O)(=O)CCS1(=O)=O,inactive: -0.158%,
CCn1c(CN2CCOCC2)nnc1SCC(=O)Nc1ccccc1Cl,inactive: 12.4%,
CCOC(=O)N1CCN(c2nc(SC)nc3sc4c(c23)CC(C)(C)OC4)CC1,inactive: 10.1%,
O=C(OCc1cnc(Cl)s1)c1c(F)cccc1F,inactive: 28.3%,
C/C(=N\NC(=O)c1cc(Cl)ccc1O)c1ccc(Br)s1,inactive: 19.1%,
Cc1csc(SCC(=O)Nc2ccccc2)n1,inactive: -0.346%,
CCN(CC)S(=O)(=O)c1ccc(N2CCOCC2)c(NC(=S)NC(=O)c2ccco2)c1,inactive: 29.8%,

Structure (SMILES),growth rescue (activation),Potency
Cc1c(CC(=O)O)c(=O)oc2c(C)c3occ(-c4ccc(F)cc4)c3cc12,inactive: -1.11%,
CCc1nnc(NC(=O)CSc2nc3c(cc2C#N)CCC3)s1,inactive: 23.8%,
NC(=O)COC(=O)c1cc(=O)[nH]c2ccc(S(=O)(=O)Nc3ccc(F)cc3)cc12,inactive: 1.72%,
O=C(N/N=C/c1ccccc1F)c1ccccc1OCc1ccccc1,inactive: 10.5%,
COc1cccc(CC(=O)Nc2nc3c(s2)C(=O)CC(C)(C)C3)c1,inactive: -4.88%,
O=C(COC(=O)COc1ccc(Cl)cc1)NCc1ccc2c(c1)OCO2,inactive: 5.05%,
CCNC(=O)NC(=O)C(C)N1C(=O)NC(c2ccccc2)(c2ccccc2)C1=O (stereo not given),inactive: 10.6%,
CC(C(=O)OCC(=O)Nc1cccc(S(=O)(=O)N2CCOCC2)c1)N1C(=O)c2ccccc2C1=O (stereo not given),inactive: 7.04%,
CCOC(=O)c1c(NC(=O)C2C3CCC(O3)C2C(=O)O)sc2c1CCC(CC)C2 (stereo not given),inactive: 2.61%,
CCC(C)Cn1c(C)nc2ccccc21 (stereo not given),inactive: 23.5%,
O=C(CSc1nc(O)c(Cc2ccccc2)c(=O)[nH]1)Nc1nnc(SCc2ccccc2)s1,inactive: 24.1%,
CCOc1ccc(CN(CCc2ccc3c(c2)OCO3)Cc2cc(OC)c(OC)cc2OC)cc1,inactive: -5.02%,
Cc1nc2ccc(NC(=O)c3cc(S(=O)(=O)N4CCOCC4)ccc3C)cc2s1,inactive: 1.09%,
O=C(/C=C/c1ccccc1)N(Cc1cccs1)C1CCS(=O)(=O)C1 (stereo not given),inactive: 7.91%,
C/C(N)=C(/C#N)C(=O)CSc1nnc(Nc2c(C)cccc2C)s1,inactive: 26.5%,
Cc1cccc(N(CC(=O)NC2CCCC2)C(=O)c2csnn2)c1C,inactive: 7.84%,
O=C(CC(C(=O)O)c1ccc(Cl)cc1)c1ccccc1 (stereo not given),inactive: -1.86%,
COc1cccc(CNc2nc3cc(-c4cccc(C(=O)NCCO)c4)sc3c(=O)n2C)c1,inactive: 6.32%,
Cc1noc(NS(=O)(=O)c2ccc(NC(=O)C(C)(C)C)cc2)c1C,inactive: 4.05%,
CC(C)Oc1ccc(S(=O)(=O)N2CCOCC2)cc1NC(=O)Cc1ccsc1,inactive: -4.51%,
COc1ccc(CC(=O)N2CCc3cc(OC)c(OC)cc3C2C)c(OC)c1 (stereo not given),inactive: -1.36%,
NS(=O)(=O)c1ccc(CNC(=O)/C=C/c2c(F)cccc2Cl)cc1,inactive: -0.504%,
Cn1ccsc1=NC(=O)c1cccc(OC(F)F)c1,inactive: 32.8%,
COc1ccc(NC(=O)c2cc(C)cc(C)c2)cc1[N+](=O)[O-],inactive: 15.5%,
